Results: the RNAGym collection of RNA variant scans (doi:10.1073/pnas.2313332121)
Variants at the floor of the assay are shown more often than the library holds them.

B1: TPR 5TU (parent)
chain: GGAUCUUCUCGAUCUAACAAAAAAGACAAAUCUGCCACAAAGCUUGAGAGCAUCUUCGGAUGCAGAGGCGGCAGCCUUCGGUGGCGCGAUAGCGCCAACGUUCUCAACUAUGACACGCAAAACGCGUGCUCCGUUGAAUGGAGUUUAUCAUG

Variants of: B1
Assay: polymerase ribozyme fitness, log enrichment relative to wild type (log ratio); higher = more active; in vitro selection for triplet polymerase activity
How it was run: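 Fitness is a logarithmic measure of how a genotype enriched relative to the wild type, with replicate averages weighted by inverse variance. The logarithm uses base 2, and enrichment came from Illumina sequencing of input and output libraries. Those libraries were PCR-built, transcribed mutants of each subunit of a heterodimeric triplet polymerase ribozyme, passed through one triplicate in vitro selection round that included frozen incubation at −7 °C, gel excision of extended constructs and streptavidin-bead capture. Genotypes were kept only if they had ≥10 input reads and ≥1 read per output.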

Polymerase ribozyme fitness (log ratio), ≤ -4.2:
A26U A29C U56A G59C U61G
A26U A29U C72U A97C U111G
A26U A41C G46A G80C G84U C93G U148A
A26U A41C G50C C57G A66C C96G U130C
A26U A49C A52G C69U C116A G152U
A26U A49C C87G C99G C103G U135G
A26U A89G C95U G126U C132G U145A
A26U C27U G46U U53G C96U C149A
A26U C27U U101A A121U G141C
A26U C32G G62U A64G U82G C87G C96G U134A G141C
A26U C32G U82C C96U U109C A113C U145C
A26U C32U U33C A98G A119U
A26U C38U G42A C93U A97U
A26U C43A G84A C93U A98U U139A G141A C149U
A26U C75G A91G A110G U146G
A26U C75G C85A C95A
A26U C79U U102C C118U U144C
A26U C85G C105A
A26U C93A
A26U G42A C51U A52G C93A G133C U134A
A26U G42A G83A C116U G136U
A26U G46C C85A
A26U G48C C93A
A26U G48C G84U U139C
A26U G59C C75A G117U U144G
A26U G70A G84A C87G A113C A120G
A26U G81C G84A U90G
A26U G100A C149A
A26U U45A G88U G133U
A26U U45C G141C
A26U U53A C85A A115G G124C G141C U148G
A26U U78G A89C C116U U146C
A26U U102A
C27A A29G G48U G59U C76A C132A
C27A A37G G59C U77A C85A
C27A A37G G71C U134C U146A
C27A A40C G50C U56A G94A A98G
C27A A41C C87A G124C U139A
C27A A49C A60U C75A U102A
C27A A49C U61A G68U C87A G152A
C27A A91U U151A
C27A C32U C38U C63U A73G C79G C93G
C27A C36G U90A C96U U134A
C27A C36U C43U G46C G83U
C27A C54U G70C G83U G117C C129G G140C
C27A C75G C99U A137G
C27A C85G G94U U102G
C27A C85G G94U U102G U151A
C27A C96G U101G U144G
C27A G34A C54U A107U
C27A G34C U78G A91U A113G A150G
C27A G42C A52U A60U C116A U148C
C27A U44A U102G A110U G140A U148A
C27A U45A A49U G65C C87G G94A C105U C131A
C27A U45A C51A C87U C95G U144C
C27A U45G G74C C87U U101A C116G
C27A U55A C85U U101G A137G U139C
C27A U104G
C27G A28G G50C A66G G70A G94C G112A
C27G A28U C38G G86A A97C A106G A137C A142C U145A
C27G A30C C69U
C27G A40C G42C C93U G117C
C27G A40C U61C C79U C93U G152A
C27G A47G A52U C75G C76A U82C A107C G141U
C27G A52G A91G A107G C129U G133U A150U
C27G C32G A37G C87U
C27G C57A U61G
C27G C57U G83A C103U A106G C108U
C27G C72G G88U C116G G117U A138U
C27G C79A G88U C93U U148A
C27G C85G A89C
C27G C87A U101A G140U
C27G C87U C105U C131A
C27G C96G U111C
C27G G46U U55A G81U G128U A137G
C27G G48C A66G
C27G G50A C85U A97C U102G U146G G152A
C27G G50C C57U G58C C93U
C27G G50C G58A G59A G92C
C27G G59U A97U C114U
C27G G84U C114U C125G G143A
C27G G86C G94A C105U C108A
C27G U44A C87U U101A
C27G U44A G86A
C27G U44A U56G G68U
C27G U45A A91C C93A G128A
C27G U45A G88A G92C A98G
C27G U53A C79U G80C A106C G117A G128U
C27G U53G C87G
C27G U53G C96U
C27G U53G U55A C72U A73C G84U U139A U151G
C27G U55A C69U C93U
C27G U55A C75G G84C
C27G U55G U56A C95U U109G C125A U127C G136C
C27G U56A C57G G84A A122U U151C
C27G U56G A64G G83A C93A G117U C125G
C27G U56G G94A A113C U135C
C27U A28U A39C G80C G133U
C27U A28U A73U G83C C85G C96A A115U C116A A119U A120U U139A A142U
C27U A29U C76A C95U U109A A120U U146G
C27U A30C A40C U53A G58A C85A A97U
C27U A30C U55G U82G G133C G141C U146A
C27U A30G A52U C114U C129G G133U A142U
C27U A30U A41G G67U C85A C95G
C27U A37U C54G U145G
C27U A39C G70C C87A U101G G140C
C27U A39U C93U U135G G143C
C27U A39U G42A G70U G92U U101G
C27U A41U G42A A47U C72A C96G
C27U A47C C51U G94C C95A U148C
C27U A49U C72U A89G A150C
C27U A52G C93G U104A U111G
C27U A60U G62C G92C C99G G133A U135C
C27U A91C C96G
C27U C32G A40G C131U U135A
C27U C32G A41C A97G U139A
C27U C32U A49G G65U A113G G136U
C27U C43U G48U A89G G136C
C27U C54U A60G C72G A91G
C27U C87G
C27U C87G C105G
C27U C93A C108G
C27U G34U U56G C85A A110G U135G
C27U G46A G62C C129G
C27U G58A A91U A106C A121U G128U G140U
C27U G59A C93U G112U
C27U G80C C93G U146C G152C
C27U G84C G88A A97G C108G
C27U U33G A40C C96G U101A
C27U U45C U61C G83U C116A C125U
C27U U55A A66G C69G G92A A98G G128U
C27U U55A G58C G59A C87U C99G U134A G136U U145C
C27U U56G C85A C118G C129G U134C
A28C A29U A52G G83U C123A
A28C A29U C85U G126U
A28C A30U U31A U53A G81A C87A A91U A98G
A28C A37U A91U A142G
A28C A37U G48U G50A G86U G126U
A28C A39C C54G A73G G88A C93A
A28C A40C G67A G80U C96G G128A
A28C A41C G46C A60C C132G
A28C A47C C72U C87G G117U A138C A142U
A28C A47U U56A C76G U78A C95U G133U
A28C A49G A97U
A28C A52G A66U C69U C96A A107U
A28C C32G G42C U53A U56G C57G C85U A115G
A28C C35G G62C C116G
A28C C43U G59C G74A G86U C95U G117C
A28C C57A G86C A110U G128U
A28C C57U G58A A60C C87A
A28C C72U G84C
A28C C116A A138C
A28C G42A U45G G88C C95U A142G U145A
A28C G48A G50U C87U A113U U134G A142U U144A
A28C G50C G68A C132G
A28C G50U C85G C118A U145G
A28C G50U G92A C95A
A28C G65U C76G C87A C108A
A28C G67C
A28C G81C C87U G126U G143U
A28C G83U C85G C116U G143U
A28C U33C G34C A89U C93U C99U
A28C U45A A64U A66C G81A C85G C114A
A28C U55A G58A G92A
A28C U56C U61G C69A G70A C87G C114A C116U G143U
A28C U78C U102G
A28G A41C C76G G81U C85A C123A G143C
